Measurements published in PubChem BioAssay AID624172 (National Center for Advancing Translational Sciences (NCATS), 2012).
Out of some 380,000 compounds screened, about 25 (0.007%) were called active. Inconclusive means that the source gave no clear call. Such entries were picked first, then a sample of the others. Calls come from the whole dose curve; as a rule, active = well fitted activation curve with a large enough effect; inconclusive = small, poorly fitted or top-dose-only effect; inactive = no such curve, though single readings can be large or run the other way. Potencies of inconclusive entries are left out as doubtful fits.

Molecular target: Glucagon-like peptide 1 receptor (Homo sapiens) (UniProt P43220)
Assay: qHTS of GLP-1 Receptor Agonists; for activation: % of control where 0% means no effect
Conditions: HEK293 GLP-1R CRE-luciferase, luminescence, 4-6 h, cells express a hypersensitive GLP-1R form; activation: at 45.6 µM (top of the series) unless noted
Potency is the fitted concentration of half-maximal effect; tags give direction and shape of the fitted curve.

Sequence of UniProt P43220 (P43220 whole entry, looked up): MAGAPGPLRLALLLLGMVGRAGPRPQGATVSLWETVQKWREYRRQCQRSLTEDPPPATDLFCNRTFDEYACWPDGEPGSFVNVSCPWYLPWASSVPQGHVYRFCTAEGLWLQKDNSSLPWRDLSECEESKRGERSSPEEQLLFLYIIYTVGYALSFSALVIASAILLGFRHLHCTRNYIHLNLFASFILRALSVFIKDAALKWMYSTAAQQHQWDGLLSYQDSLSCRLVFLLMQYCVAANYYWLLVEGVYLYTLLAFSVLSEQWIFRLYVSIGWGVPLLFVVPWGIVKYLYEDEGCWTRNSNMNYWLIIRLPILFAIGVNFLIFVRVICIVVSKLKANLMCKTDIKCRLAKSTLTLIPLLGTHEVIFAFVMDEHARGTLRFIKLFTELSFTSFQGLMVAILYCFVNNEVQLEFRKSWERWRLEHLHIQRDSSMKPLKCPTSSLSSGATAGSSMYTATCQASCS

SMILES	Potency	activation
N#Cc1c(NCCCO)nc(-c2ccccc2)c2c1CCCC2	inconclusive [activator, single point]	
CCC(C)[C@H](NC(=O)[C@@H]1Cc2ccccc2CN1)C(=O)NCc1ccc(OC)cc1 (stereo partly drawn)	inconclusive [activator, single point]	
Cc1cc(C)c2c(CN(C)Cc3ccccc3)cc(=O)oc2c1	inconclusive [activator, partial curve, poor fit]	
CC(=O)CSc1nc2ccccc2s1	inconclusive [activator, single point]	
COc1cc2c(cc1OC)C(COc1ccc(C(C)C)cc1)N(C(=O)c1ccc(S(=O)(=O)N3CCCC3)cc1)CC2 (stereo not drawn)		inactive: -4.48%
Cc1ccc(C)c(COC(=O)c2cc([N+](=O)[O-])ccc2N2CCOCC2)c1	inconclusive [activator, partial curve]	
CC1CCCCN1C(=O)Cn1nnc(-c2cccnc2)n1 (stereo not drawn)	inconclusive [activator, single point]	
Cc1ccsc1CNCC(O)c1ccccc1 (stereo not drawn)	inconclusive [activator, partial curve, poor fit]	
C/C(=N\NC(=O)COc1ccc(C(C)(C)C)cc1)c1ccccc1	inconclusive [activator, single point]	
Fc1cccc(Cl)c1Cn1nnc(-c2ccc(N3CCOCC3)cc2)n1		inactive: -3.53%
Cc1ccccc1C(=O)Nc1cccc(-c2cn3ccccc3n2)c1	inconclusive [activator, partial curve, poor fit]	
O=C(CN1C(=O)CSc2ccc(S(=O)(=O)N3CCCC3)cc21)NCc1ccc(F)cc1Cl		inactive: -3%
COc1ccc(/C=N/NC(=O)c2cc3c(OC)ccc(OC)c3[nH]2)cc1O	inconclusive [activator, partial curve]	
Oc1ccccc1/C=N/N1CCN(c2ccccn2)CC1	inconclusive [activator, partial curve, poor fit]	
COc1cc(SC)ccc1C(=O)OCc1nc2ccsc2c(=O)[nH]1	inconclusive [activator, single point]	
COc1ccc(/C=C/C(=O)O)cc1	inactive	
COc1ccc(C(C)=O)cc1CSc1ccc2c(c1)OCCO2	inconclusive [activator, partial curve, poor fit]	
c1ccc(-c2cnc(-c3cccnc3)o2)cc1	inconclusive [activator, single point]	
N=c1c2c3c(sc2ncn1N)CCC3		inactive: -6.42%
Cc1cc(C)cc(C(=O)O/N=C(\N)c2ccc(Br)cc2)c1	inconclusive [activator, partial curve, poor fit]	
Clc1cccc(-c2nc3ccc(Cl)cn3c2Cc2ccccc2)c1	inconclusive [activator, partial curve, poor fit]	
O=C1c2sccc2-c2cccc3cccc1c23	inconclusive [activator, single point]	
CSc1nc2c(c(=O)[nH]c(=O)n2C)n1CCCc1ccccc1	inconclusive [activator, single point]	

SMILES	Potency	activation
CCN(CC)c1ccc2c(Cl)cc(=O)oc2c1	inconclusive [activator, single point]	
CN(C)CCc1c[nH]c2ccc(CS(=O)(=O)N3CCCC3)cc12	inconclusive [activator, full curve, poor fit]	
COc1cccc(Nc2nc(N)nc(C(F)(F)F)n2)c1	inconclusive [activator, partial curve, poor fit]	
COC(=O)c1c(NC(=O)C2=COCCO2)sc(C)c1C	inconclusive [activator, full curve, poor fit]	
C/C(=N\NC(=O)c1ccc(N/N=C(\C)c2ccncc2)cc1)c1ccncc1	inconclusive [activator, partial curve, poor fit]	
CC(=O)N1CCN(c2ccc(NCc3cccc4ccccc34)cc2)CC1	inconclusive [activator, partial curve, poor fit]	
Cc1nn2c(=O)c3c4c(sc3nc2n1-c1ccccc1)COC(C)(C)C4		inactive: -2.07%
CCCCNC(=O)Nc1nnc(-c2ccccc2)o1		inactive: -6.23%
Cc1ccc(C(C)C)c(OCC(=O)Nc2ccc3c(c2)nc(CN2CCCC2)n3C)c1		inactive: 10.6%
CCc1nc(Nc2ccc(O)cc2)c2oc3ccccc3c2n1	inconclusive [activator, partial curve, poor fit]	
O=C(O)CNc1nc(-c2ccccc2)c2cc([N+](=O)[O-])ccc2n1	inconclusive [activator, partial curve, poor fit]	
O=C(NC12CC3CC(CC(C3)C1)C2)N1CCC(n2nnc3ccccc32)CC1		inactive: -0.507%
CCOC(=O)c1ccc(Cn2c(-c3ccccc3)nnc2-c2ccccc2)o1	inconclusive [activator, single point]	
CC(C)NS(=O)(=O)c1ccc(NC(=O)Cc2ccsc2)cc1	inconclusive [activator, single point]	
COc1ccc(COC(=O)c2cccc(S(=O)(=O)N3CCN(C(C)=O)CC3)c2)cc1F	inconclusive [activator, partial curve, poor fit]	
CNC(=S)N/N=C/c1ccc(-c2ccc(C(=O)O)cc2)o1		inactive: -2.46%
COc1ccc(C2c3ccc4ccccc4c3Oc3ncn(CCCO)c(=N)c32)cc1OC (stereo not drawn)	inconclusive [activator, single point]	
O=C(NCc1ccccn1)Nc1ccc2c(c1)OCO2	inconclusive [activator, partial curve]	
O=C(NCC1CCCN(Cc2nccs2)C1)c1cccc2ccccc12 (stereo not drawn)		inconclusive: 35.7% [activator]
Cc1ccc(C)c(S(=O)(=O)Nc2cc3c4c(c2)CCC(=O)N4CCC3)c1	inconclusive [activator, partial curve, poor fit]	
COC(=O)c1sc(NC(=O)CSc2nc3cccnc3n2C)nc1C		inconclusive: 44.2% [activator]
N/C(=N\OC(=O)c1ccc2ccccc2c1)c1ccccc1Cl	inconclusive [activator, single point]	
Cc1ccc(NC(=S)NCCc2ccccc2)nc1	inconclusive [activator, partial curve, poor fit]	

SMILES	Potency	activation
CCN(CC(O)c1cccc(O)c1)C(=O)C12CC3CC(CC(C3)C1)C2 (stereo not drawn)	active: 12.6 µM	
CC1=CC(c2ccccc2)n2nc(N3C(=O)CCC3=O)nc2N1 (stereo not drawn)		inactive: -7.52%
O=C(NC(=S)Nc1cccc(F)c1)c1cccc([N+](=O)[O-])c1		inactive: 8.92%
O=[N+]([O-])c1ccc(Nc2ccccc2O)c2nonc12	inconclusive [activator, single point]	
CCN(CC(=O)Nc1ccc(OC)c(OC)c1)CC(=O)Nc1ccccc1C(F)(F)F	inconclusive [activator, partial curve, poor fit]	
CC/C(=N\NC(=S)NC(C)C)c1ccc(OC)c(OC)c1	inconclusive [activator, partial curve, poor fit]	
COc1cccc(C(=O)Nc2cccc(-c3nnc(-c4ccccc4)o3)c2)c1		inactive: -6.25%
CSc1ccc(/C=N/n2c(Cc3ccc(Br)cc3)n[nH]c2=S)cc1		inactive: 13.4%
Cc1ccc(Sc2ccc(CO)cc2[N+](=O)[O-])cc1		inactive: 15.6%
COc1ccc(CN(C)CC(=O)Nc2ccc(N3CCOCC3)cc2)cc1OC	inconclusive [activator, partial curve, poor fit]	
O=C(NCc1ccccc1Cl)c1ccccc1Oc1ccccc1	inconclusive [activator, partial curve]	
CC(C)c1cc2cc3ccc(=O)oc3cc2o1	inconclusive [activator, single point]	
Cc1ccc(N(C)S(=O)(=O)c2ccc(-c3cnc(C4CC4)o3)cc2)cc1	inconclusive [activator, partial curve, poor fit]	
COc1ccc(-n2nc(C(=O)NCC(=O)Nc3cc(OC)c(OC)c(OC)c3)c3ccccc3c2=O)cc1		inconclusive: 54.5% [activator]
CN(C)S(=O)(=O)c1ccc(N=Cc2c(C(F)(F)F)[nH][nH]c2=O)cc1		inactive: -0.854%
CC(C)OCCCNC(=O)C1CCN(S(=O)(=O)N2CCCCC2)CC1	inconclusive [activator, partial curve, poor fit]	
COc1ccccc1Nc1nc(C)nc2c1oc1ccccc12	inconclusive [activator, single point]	
N#Cc1ccccc1CSc1nc2ccsc2c(=O)n1Cc1ccccn1	inconclusive [activator, single point]	
O=C(CCNC(=O)C1CCN(S(=O)(=O)c2ccccc2)CC1)NCc1cccnc1	inconclusive [activator, partial curve, poor fit]	
CCc1nc2ccc(C(=O)N3CCCCC3)cn2c1N(CCC(C)C)CCN(C)C		inactive: -1.53%
Cc1ccc(Cn2ncc3c(N4CCCC4)ncnc32)cc1	inconclusive [activator, single point]	
COc1cc(C(=O)N(Cc2cccnc2)Cc2cc3cc4c(cc3[nH]c2=O)OCCO4)cc(OC)c1OC	inconclusive [activator, partial curve, poor fit]	
